About 14,000 (4.5%) of roughly 310,000 compounds showed an effect of 50% or more. The effect is printed as a negative number. Some of the results follow.
Molecular target: human ether-à-go-go-related gene (hERG) potassium channel (human, UniProt Q12809)
Assay: primary screen, population patch clamp on CHO cells stably expressing hERG
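Further: peak tail current of the secondary pulse compared with the same well before compound.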

human ether-à-go-go-related gene (hERG) potassium channel, sequence (Q12809 whole entry, looked up): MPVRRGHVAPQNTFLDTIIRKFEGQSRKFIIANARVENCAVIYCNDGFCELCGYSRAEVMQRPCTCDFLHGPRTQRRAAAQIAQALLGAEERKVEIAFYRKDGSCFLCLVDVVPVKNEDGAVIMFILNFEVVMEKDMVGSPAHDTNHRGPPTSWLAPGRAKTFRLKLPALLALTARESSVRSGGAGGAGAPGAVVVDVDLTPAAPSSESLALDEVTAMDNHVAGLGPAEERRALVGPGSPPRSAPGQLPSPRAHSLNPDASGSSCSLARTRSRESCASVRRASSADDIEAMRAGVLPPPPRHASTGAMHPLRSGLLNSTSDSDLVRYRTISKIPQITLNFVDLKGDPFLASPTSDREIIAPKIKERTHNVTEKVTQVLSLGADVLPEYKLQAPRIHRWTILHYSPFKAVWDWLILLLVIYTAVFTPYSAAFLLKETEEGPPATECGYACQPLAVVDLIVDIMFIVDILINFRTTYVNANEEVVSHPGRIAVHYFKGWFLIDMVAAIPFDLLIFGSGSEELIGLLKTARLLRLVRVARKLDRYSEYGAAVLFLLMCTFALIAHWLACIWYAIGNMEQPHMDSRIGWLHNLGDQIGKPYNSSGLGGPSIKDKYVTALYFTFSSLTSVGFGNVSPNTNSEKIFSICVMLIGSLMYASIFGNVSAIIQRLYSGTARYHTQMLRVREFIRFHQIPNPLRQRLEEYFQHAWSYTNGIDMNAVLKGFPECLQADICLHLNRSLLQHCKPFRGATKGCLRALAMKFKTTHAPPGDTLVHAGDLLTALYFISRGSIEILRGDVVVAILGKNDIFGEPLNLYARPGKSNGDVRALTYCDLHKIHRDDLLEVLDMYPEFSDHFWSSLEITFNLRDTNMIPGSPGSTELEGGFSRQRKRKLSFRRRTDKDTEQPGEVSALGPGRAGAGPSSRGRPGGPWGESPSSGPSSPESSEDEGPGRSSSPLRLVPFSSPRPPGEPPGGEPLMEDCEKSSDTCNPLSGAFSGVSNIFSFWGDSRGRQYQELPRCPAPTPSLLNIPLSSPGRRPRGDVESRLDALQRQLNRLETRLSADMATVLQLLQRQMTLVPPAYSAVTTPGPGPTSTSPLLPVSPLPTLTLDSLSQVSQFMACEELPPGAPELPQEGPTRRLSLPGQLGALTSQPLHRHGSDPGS

SMILES | hERG current change (%, negative = inhibition) at 10uM [%]
COc1ccc(CCNC(=O)C2CCN(C(=O)c3cccc(Cl)c3)CC2)cc1OC | 11.5
Cc1ccccc1OCC(=O)Nc1cccc(NC(=O)c2ccco2)c1 | -32
CC(=O)NC(Cc1c[nH]c2ccccc12)C(=O)N1CCN(S(=O)(=O)c2ccccc2)CC1 (stereo not shown) | 9.01
CCCCCCCCCCCC(=O)N1CC(=O)NC(=O)C1 | 7.19
Cc1ccc2c(c1)C(=O)C(=O)N2CC1COc2ccccc2O1 (stereo not shown) | 12.1
CN(CC(=O)Nc1ccccc1Cl)C(=O)COC(=O)CSc1ccc(F)cc1 | -45.2
CC(C)(C)NC(=O)c1cc(C(C)(C)C)c(O)c(C(C)(C)C)c1 | 4.79
Cc1nc(C2COc3ccccc3O2)sc1C(=O)O (stereo not shown) | 13.8
CC(C)Oc1ccc(S(=O)(=O)N2CCOCC2)cc1NC(=O)CC1OC(=O)c2ccccc21 (stereo not shown) | -25
CCOC(=O)C1CCN(Cc2cn[nH]c2-c2ccc(C)cc2)CC1 | -51.8
Cc1cc(C)cc(OCCCCn2cncn2)c1 | 1.77
COc1ccc2nc(C(F)(F)C(F)(F)F)c(C#N)c(N)c2c1 | 15.9
Cc1ccc(Cl)cc1N(CC(=O)N1CCOCC1)S(C)(=O)=O | 8.23
Nc1nc(NCCOCCO)nc(NC2CCCCC2)c1[N+](=O)[O-] | -4.02
OCCC1CN(C2CSCCSC2)CCN1Cc1ccccc1 (stereo not shown) | 11.9
O=[N+]([O-])c1ccc(OCCn2cncn2)cc1 | 5.29
O=Cc1cnc(N2CCN(Cc3ccccc3)CC2)s1 | -8.97
COc1ccc(CCNC(=O)C(=O)c2cn(CC(=O)N3CCOCC3)c3ccccc23)cc1 | 7.24
CCN(c1ccc(OC)cc1)S(=O)(=O)c1nnc(NC(=O)CC(C)C)s1 | -0.0537
CC1=CC(C)(C)NC(=S)N1c1cccc2cc(S(=O)(=O)O)ccc12 | 15.6
COC(=O)c1ccc(C(=O)N(C)C2CCCN(Cc3ccccc3F)C2)nc1 (stereo not shown) | 18.6
Cc1cc(S(=O)(=O)NCC(C)C)ccc1OCC(=O)N1CCN(Cc2ccccc2)CC1 | -35.2

SMILES | hERG current change (%, negative = inhibition) at 10uM [%]
Cc1ccc(C)c(N/C=C(\C#N)c2nc3ccccc3o2)c1 | 3.92
CC1CCCCC12NC(=O)N(Cc1cc(=O)n3ccsc3n1)C2=O (stereo not shown) | 5.65
Cc1sc2ncnc(NCc3ccco3)c2c1C | -16.3
COC(=O)c1ccc(Cn2nc(-c3cc(C)ccc3C)ccc2=O)cc1 | -6.58
O=C(Cn1c2ccccc2c2nc3n(c(=O)c21)CCS3)N1CCCC1 | 11.5
Cc1ccc(C(=O)CSc2nnc(COc3cccc4cccnc34)o2)cc1 | -20.3
O=C(Cc1ccccc1)N1CCN(Cc2ccccn2)CC1 | -1.55
Cc1c(C(=O)Nc2cnccn2)oc2ccccc12 | -7.71
O=C(/C(=N/N=C/c1ccc(O)c(O)c1)c1ccccc1)c1ccccc1 | 3.4
CN(C(=O)COC(=O)c1cc(=O)[nH]c2ccccc12)c1c(N)n(Cc2ccccc2)c(=O)[nH]c1=O | -7.96
C/C(=N/NC(=O)c1ccccn1)c1ccco1 | 11.4
Cc1ccc(OCCNC(=O)/C=C/c2ccccc2)cc1 | -3.75
CC(=O)c1cccc(CN2CCC(CO)(Cc3ccccc3)CC2)c1 | -22.9
CCN(CC)S(=O)(=O)c1ccc2c(c1)c(=O)c(C(=O)N1CCc3ccccc3C1)cn2C | -30.4
CC(NC(=O)COC(=O)Cc1ccsc1)c1ccccc1 (stereo not shown) | -4.98
OC(CNCc1ccco1)Cn1c2ccccc2c2ccccc21 (stereo not shown) | -58.4
COc1ccc(C(=O)NCC2CCCN2S(=O)(=O)c2cccs2)cc1OC (stereo not shown) | -3.01
CCOc1ccc(C(=O)NCC(=O)OCc2cc([N+](=O)[O-])cc3c2OCOC3)cc1OCC | -12
COc1ccccc1CNC(=O)C1CCN(C(=O)N(C)C)CC1 | 13.7
Cc1ccc2nsnc2c1S(=O)(=O)N(CCO)Cc1cc2cc3c(cc2[nH]c1=O)OCCO3 | 9.12
Cc1cc(NC(=O)COC(=O)c2oc3c(Cl)cccc3c2C)no1 | 8.03
CCOC(=O)c1cccc(NC(=O)c2c(N)n(C)c(=O)[nH]c2=O)c1 | 19.9

SMILES | hERG current change (%, negative = inhibition) at 10uM [%]
CC(OC(=O)c1cc(=O)[nH]c2ccccc12)C(=O)NC1CCCC1 (stereo not shown) | -7.37
COc1cccc(NC(=O)CCNS(=O)(=O)c2ccc(Br)s2)c1 | -32.6
O=C(Nc1cc(Br)ccc1O)c1cc(-c2ccco2)on1 | 13
O=C(NCc1ccccn1)c1cc(-c2ccccc2)nc2ccccc12 | -25.2
CCCN(CCC)Cc1cc2ccccc2c2c1COC2 | -29
COc1cc(C(=O)OCC(=O)NC2CC2)cc(OC)c1OC | -0.0787
COc1ccc(CNC(=O)[C@H](C)NC(=O)C2CC(=O)N(c3ccc(OC)cc3)C2)cc1 (stereo partly shown) | 1.04
COC(=O)CNC(c1ccccc1)c1cc(C)ccc1NC(=O)CNC(=O)OCc1ccccc1 (stereo not shown) | -31.4
CCOC(=O)c1nn(-c2ccc(Cl)cc2)c2nc(CC)c(C#N)c(=O)n12 | -0.431
O=C1CCc2cc(S(=O)(=O)N3CCC(C(=O)NC4CCCCCCC4)CC3)ccc2N1 | 10.8
CC(C)c1cccc(C(C)C)c1NC(=O)CN1C(=O)NC2(CCCCCCC2)C1=O | -1.05
COc1ccccc1NC(=O)/C(=N/OCc1ccc(F)cc1)C(C)=O | -16.4
O=C(Nc1ccc(N2CCOCC2)c(Cl)c1)c1ccc(-n2cnnc2)cc1 | 2.2
CS(=O)(=O)N(CC(=O)NC1CCCCC1)Cc1ccc(Cl)cc1 | 3.78
O=C(NCCc1nc(-c2ccccc2Cl)no1)c1ccccc1 | -1.07
Cc1ccc(CCNS(=O)(=O)c2cc(Br)cnc2N)cc1 | 5.97
CCNC(=O)CC1C(=O)N(c2cccc(C)c2)C(=O)N1CCC(C)C (stereo not shown) | -75
O=C(NC(Cc1c[nH]c2ccccc12)C(=O)O)/C(=C\c1ccc2c(c1)OCO2)NC(=O)c1ccccc1 (stereo not shown) | -7.13
COC(=O)c1ccc(C)c(NS(=O)(=O)c2ccc3c(c2)OCCO3)c1 | -26.8
COc1cc(C)ccc1OCCCON1C(=O)CCC1=O | 7.61
CCc1ccc(C(C)(O)C(CN2CCOCC2)c2ccccc2)cc1.Cl (stereo not shown) | -14.8
CCc1ccccc1NC(=S)/N=C(\N)Nc1nc(C)c2cc(C)ccc2n1 | -9.49

SMILES | hERG current change (%, negative = inhibition) at 10uM [%]
COc1ccc(Nc2ncnc3c2cnn3-c2ccccc2)cc1OC | 9.45
CN(C)C=O.COc1ccc(NC(=O)COC(=O)c2cc(OC)c(OC)cc2NC(=O)c2ccco2)cc1OC | 14.2
Nc1nc2c(ncn2C2C[C@H](O)[C@@H](CO)O2)c(=O)[nH]1 (stereo partly shown) | 14.4
CC(=O)C(Cc1cnc(Cl)s1)(Cc1cnc(Cl)s1)C(C)=O | -4.31
O=C(NCC(=O)N(c1cccc(F)c1)C(C(=O)NC1CCCC1)c1ccncc1)c1ccco1 (stereo not shown) | 17.8
COc1cc(C)ccc1OCCOCCOc1cc(C)c(C)cc1Br | 1.45
COc1ccc(OC)c(/C=N/NC(=O)c2csc3ccccc23)c1 | 1.24
Cc1ccc(Cn2ccc(NC(=O)c3cc(CC(C)C)on3)n2)cc1 | -8.08
CC(=O)Nc1ccc(NC(=O)C(C)OC(=O)c2ccc3ccccc3n2)cc1 (stereo not shown) | 14.6
COC(=O)c1ccccc1NC(=O)Cn1cnc2c(cnn2-c2ccccc2)c1=O | 2.17
Cc1ccc(-c2ccc(=O)n(Cc3ccc(F)cc3Cl)n2)cc1 | 18.1
CC1(C)N(O)C2CCCCC2N1O (stereo not shown) | 4.45
O=C(c1cc2cc(Br)cc(Br)c2oc1=O)N1CCCC1 | -9.98
Cc1cccc(COCC(Cc2ccccc2)N2CCN(C(=O)c3cc(Cl)cc(Cl)c3)CCC2=O)c1 (stereo not shown) | -29.4
Cc1ccc(S(=O)(=O)n2nc(-c3cccnc3)nc2N)cc1 | 13.3
NS(=O)(=O)c1ccc(NC(=O)COC(=O)c2cn(-c3ccccc3)nc2-c2ccc(F)cc2)cc1 | 5.85
CCC(C)(C)NC(=O)CN(Cc1cccs1)C(=O)C(=O)Nc1ccc2c(c1)OCCO2 | -12.9
CC1(C)Cc2c(c(N3CCOCC3)nc3sc(C(=O)Nc4ccccc4)c(N)c23)CO1 | -0.852
O=c1cc(CN2CCN(S(=O)(=O)c3ccc4ccccc4c3)CC2)nc2sccn12 | -25.2
c1ccc2c(C3CCO3)cccc2c1 (stereo not shown) | 13.3
CCN(CC(=O)Nc1c(F)cccc1F)C(=O)CCC(=O)c1ccc(C)cc1 | -9.14
O=C(NNS(=O)(=O)c1ccccc1)C(O)(c1ccccc1)c1ccccc1 | 7.23

Source: article PMC4336329 (PLoS ONE, 2015)
